Experimental data published in the supplement of paper PMC4604168 (melanoma cell lines).
The list shows a part of the results. Single values are uncertain, as repeats are few or missing.

What was measured:
Assay in all cases: cell count relative to DMSO control; melanoma cells; higher = more viable cells
Settings in all cases: library dose: low library concentration; 72 h
MZ2-MEL = test system: MZ2-MEL
MeWo = test system: MeWo
RPMI7951 = test system: RPMI7951
RVH-421 = test system: RVH-421
SkMel28 = test system: SkMel28
SkMel2 = test system: SkMel2
SkMel30 = test system: SkMel30
UACC62 = test system: UACC62
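Note: cell number obtained by counting DAPI-stained nuclei in high-throughput microscope images with image analysis software, screen run in 1,536-well plates.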

| SMILES | cell count (MZ2-MEL) [%] | cell count (MeWo) [%] | cell count (RPMI7951) [%] | cell count (RVH-421) [%] | cell count (SkMel28) [%] | cell count (SkMel2) [%] | cell count (SkMel30) [%] | cell count (UACC62) [%] |
| --- | --- | --- | --- | --- | --- | --- | --- | --- |
| Cn1c(=O)n(-c2ccc(C(C)(C)C#N)cc2)c2c3cc(-c4cnc5ccccc5c4)ccc3ncc21 + Nc1ncn([C@H]2C[C@H](O)[C@@H](CO)O2)c(=O)n1 [decitabine] (first compound 0.004 µM, partner dose 0.1 µM) | 82.6 | 78.1 | 92.6 | 84 | 74.7 | 95.2 | 81.1 | 78.5 |
| Cn1c(=O)n(-c2ccc(C(C)(C)C#N)cc2)c2c3cc(-c4cnc5ccccc5c4)ccc3ncc21 + C[C@@H](Oc1cc(-c2cnn(C3CCNCC3)c2)cnc1N)c1c(Cl)ccc(F)c1Cl [Crizotinib] (first compound 0.004 µM, partner dose 0.2 µM) | 106 | 81.4 | 96 | 109 | 88.5 | 89.4 | 71.5 | 110 |
| Cn1c(=O)n(-c2ccc(C(C)(C)C#N)cc2)c2c3cc(-c4cnc5ccccc5c4)ccc3ncc21 + Cn1nnc2c(C(N)=O)ncn2c1=O [temozolomide] (first compound 0.004 µM, partner dose 2 µM) | 92.6 | 83 | 85.6 | 105 | 87.4 | 88.7 | 60.6 | 69.2 |
| Cc1cc(Nc2cc(N3CCN(C)CC3)nc(/C=C/c3ccccc3)n2)n[nH]1 + C#Cc1cccc(Nc2ncnc3cc(OCCOC)c(OCCOC)cc23)c1 [erlotinib] (first compound 0.04 µM, partner dose 0.8 µM) | 96.7 | 80.9 | 83.1 | 82.2 | 85 | 90 | 88.1 | 73.1 |
| COc1ccc(C2=N[C@@H](c3ccc(Cl)cc3)[C@@H](c3ccc(Cl)cc3)N2C(=O)N2CCNC(=O)C2)c(OC(C)C)c1 [Nutlin-3] + CCCS(=O)(=O)Nc1ccc(F)c(C(=O)c2c[nH]c3ncc(Cl)cc23)c1F [PLX4720] (first compound 0.1 µM, partner dose 0.08 µM) | 93.4 | 94.7 | 108 | 80.1 | 95.8 | 89.9 | 120 | 80.4 |
| CC(C)C[C@H](NC(=O)[C@H](Cc1ccccc1)NC(=O)c1cnccn1)B(O)O [Bortezomib] + CN1CCN(c2ccc3nc(-c4c(N)c5c(F)cccc5[nH]c4=O)[nH]c3c2)CC1 [Dovitinib] (first compound 0.001 µM, partner dose 0.1 µM) | 31.9 | 67.9 | 37.4 | 33 | 91 | 91.3 | 50.2 | 61.6 |
| Cn1c(=O)n(-c2ccc(C(C)(C)C#N)cc2)c2c3cc(-c4cnc5ccccc5c4)ccc3ncc21 + Clc1ccc(Nc2nnc(Cc3ccncc3)c3ccccc23)cc1 [vatalanib] (first compound 0.004 µM, partner dose 2 µM) | 95 | 67.3 | 73.8 | 106 | 88.9 | 88.8 | 83.5 | 81.7 |
| COc1ccc(C2=N[C@@H](c3ccc(Cl)cc3)[C@@H](c3ccc(Cl)cc3)N2C(=O)N2CCNC(=O)C2)c(OC(C)C)c1 [Nutlin-3] + C=CCNC1=C2C[C@@H](C)C[C@H](OC)[C@H](O)[C@@H](C)/C=C(\C)[C@H](OC(N)=O)[C@@H](OC)/C=C\C=C(/C)C(=O)NC(=CC1=O)C2=O [Tanespimycin] (first compound 0.1 µM, partner dose 0.002 µM) | 104 | 102 | 100 | 86.6 | 96.5 | 106 | 84.8 | 88.8 |
| CC(C)C[C@H](NC(=O)[C@H](Cc1ccccc1)NC(=O)c1cnccn1)B(O)O [Bortezomib] + Cc1nc(Nc2ncc(C(=O)Nc3c(C)cccc3Cl)s2)cc(N2CCN(CCO)CC2)n1 [dasatanib] (first compound 0.001 µM, partner dose 0.004 µM) | 54.8 | 73.7 | 63.2 | 81.5 | 77.2 | 103 | 58.8 | 60.1 |
| Cc1cn(-c2cc(NC(=O)c3ccc(C)c(Nc4nccc(-c5cccnc5)n4)c3)cc(C(F)(F)F)c2)cn1 [nilotinib] + C[C@]1(c2nc3c(C(N)=O)cccc3[nH]2)CCCN1 [Veliparib] (first compound 0.2 µM, partner dose 1.4 µM) | 95.9 | 95.5 | 84 | 78.9 | 92.5 | 85.7 | 91.3 | 95.1 |
| Cc1cn(-c2cc(NC(=O)c3ccc(C)c(Nc4nccc(-c5cccnc5)n4)c3)cc(C(F)(F)F)c2)cn1 [nilotinib] + CC(=O)O[C@@]12CO[C@@H]1C[C@H](O)[C@@]1(C)C(=O)[C@H](O)C3=C(C)[C@@H](OC(=O)[C@H](O)[C@@H](NC(=O)OC(C)(C)C)c4ccccc4)C[C@@](O)([C@@H](OC(=O)c4ccccc4)[C@H]21)C3(C)C [Docetaxel] (first compound 0.2 µM, partner dose 0.0001 µM) | 71.3 | 52.6 | 39 | 80.9 | 65.4 | 53 | 36.1 | 63.1 |
| Cc1cn(-c2cc(NC(=O)c3ccc(C)c(Nc4nccc(-c5cccnc5)n4)c3)cc(C(F)(F)F)c2)cn1 [nilotinib] + CN(c1ncccc1CNc1nc(Nc2ccc3c(c2)CC(=O)N3)ncc1C(F)(F)F)S(C)(=O)=O [PF562271] (first compound 0.2 µM, partner dose 0.08 µM) | 82.6 | 101 | 85.1 | 96 | 94.8 | 70.7 | 92.1 | 74.1 |
| Cc1cc(Nc2cc(N3CCN(C)CC3)nc(/C=C/c3ccccc3)n2)n[nH]1 + C=CCNC1=C2C[C@@H](C)C[C@H](OC)[C@H](O)[C@@H](C)/C=C(\C)[C@H](OC(N)=O)[C@@H](OC)/C=C\C=C(/C)C(=O)NC(=CC1=O)C2=O [Tanespimycin] (first compound 0.04 µM, partner dose 0.002 µM) | 102 | 91.2 | 77.3 | 91.9 | 95.9 | 94 | 99.6 | 87.7 |
| Cn1c(=O)n(-c2ccc(C(C)(C)C#N)cc2)c2c3cc(-c4cnc5ccccc5c4)ccc3ncc21 + COCC[n+]1c2c(n(Cc3cnccn3)c1C)C(=O)c1ccccc1C2=O [YM155] (first compound 0.004 µM, partner dose 0.0004 µM) | 66 | 77.3 | 82.1 | 99.7 | 68.5 | 76.7 | 76.4 | 90.2 |
| Cc1cc(Nc2cc(N3CCN(C)CC3)nc(/C=C/c3ccccc3)n2)n[nH]1 + OCc1c[nH]c2ccccc12 [Indole-3-carbinol] (first compound 0.04 µM, partner dose 0.8 µM) | 87.4 | 91.1 | 99.2 | 87 | 103 | 100 | 88.1 | 103 |
| Cc1cc(Nc2cc(N3CCN(C)CC3)nc(/C=C/c3ccccc3)n2)n[nH]1 + Cc1nc(Nc2ncc(C(=O)Nc3c(C)cccc3Cl)s2)cc(N2CCN(CCO)CC2)n1 [dasatanib] (first compound 0.04 µM, partner dose 0.004 µM) | 84.5 | 89.6 | 79.5 | 88.9 | 77.6 | 97.9 | 89.7 | 79.9 |
| Cc1cc(Nc2cc(N3CCN(C)CC3)nc(/C=C/c3ccccc3)n2)n[nH]1 + O=C(O)c1ccc2c(c1)nc(Nc1cccc(Cl)c1)c1ccncc12 [CX4945] (first compound 0.04 µM, partner dose 0.4 µM) | 93.5 | 88.1 | 83.5 | 88.4 | 99.4 | 0.273 | 92.4 | 77.4 |
| Cc1cn(-c2cc(NC(=O)c3ccc(C)c(Nc4nccc(-c5cccnc5)n4)c3)cc(C(F)(F)F)c2)cn1 [nilotinib] + Cn1c(Nc2ccc(C(F)(F)F)cc2)nc2cc(Oc3ccnc(-c4ncc(C(F)(F)F)[nH]4)c3)ccc21 [CHIR265] (first compound 0.2 µM, partner dose 0.08 µM) | 97.7 | 75 | 73.7 | 78.6 | 65.9 | 94.7 | 54.1 | 53.5 |
| Cc1cn(-c2cc(NC(=O)c3ccc(C)c(Nc4nccc(-c5cccnc5)n4)c3)cc(C(F)(F)F)c2)cn1 [nilotinib] + OCc1c[nH]c2ccccc12 [Indole-3-carbinol] (first compound 0.2 µM, partner dose 0.8 µM) | 87 | 95.9 | 88.1 | 90.3 | 113 | 94 | 78 | 84 |
| COc1ccc(C2=N[C@@H](c3ccc(Cl)cc3)[C@@H](c3ccc(Cl)cc3)N2C(=O)N2CCNC(=O)C2)c(OC(C)C)c1 [Nutlin-3] + CS(=O)(=O)CCNCc1ccc(-c2ccc3ncnc(Nc4ccc(OCc5cccc(F)c5)c(Cl)c4)c3c2)o1 [lapatinib] (first compound 0.1 µM, partner dose 0.8 µM) | 105 | 113 | 118 | 86.7 | 106 | 99.1 | 98.6 | 90.2 |
| COc1ccc(C2=N[C@@H](c3ccc(Cl)cc3)[C@@H](c3ccc(Cl)cc3)N2C(=O)N2CCNC(=O)C2)c(OC(C)C)c1 [Nutlin-3] + C[C@]1(c2nc3c(C(N)=O)cccc3[nH]2)CCCN1 [Veliparib] (first compound 0.1 µM, partner dose 1.4 µM) | 93.1 | 106 | 99.7 | 107 | 82.5 | 89.6 | 91.7 | 74.8 |
| Cn1c(=O)n(-c2ccc(C(C)(C)C#N)cc2)c2c3cc(-c4cnc5ccccc5c4)ccc3ncc21 + Nc1nc(F)nc2c1ncn2[C@@H]1O[C@H](CO)[C@@H](O)[C@@H]1O [fludarabine] (first compound 0.004 µM, partner dose 0.2 µM) | 97.8 | 36.3 | 82.6 | 93.8 | 81.2 | 8.59 | 24.7 | 100 |
